Measurements reported in patent publication US20180289790A1 (Bristol-Myers Squibb, published 2018).

Biological target: T1, human ICOS (huICOS), on activated human CD4+ T cells (human, UniProt Q9Y6W8 21-199)
T1 sequence: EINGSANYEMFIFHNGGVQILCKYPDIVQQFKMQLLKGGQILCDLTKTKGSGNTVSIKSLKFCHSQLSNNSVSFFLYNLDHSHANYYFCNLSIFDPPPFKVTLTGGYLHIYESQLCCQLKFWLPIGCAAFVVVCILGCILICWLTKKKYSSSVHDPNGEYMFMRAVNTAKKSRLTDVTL
Assay: cell-based or functional assay

B1: ICOS.33 IgG1f S267E (antibody)
heavy: EVQLVESGGGLVKPGGSLRLSCAASGFTFSDYFMHWVRQAPGKGLEWVGVIDTKSFNYATYYSDLVKGRFTISRDDSKNTLYLQMNSLKTEDTAVYYCTATIAVPYYFDYWGQGTLVTVSSASTKGPSVFPLAPSSKSTSGGTAALGCLVKDYFPEPVTVSWNSGALTSGVHTFPAVLQSSGLYSLSSVVTVPSSSLGTQTYICNVNHKPSNTKVDKRV[human IgG1 Fc with changes not shown]
light: DIQMTQSPSSLSASVGDRVTITCQASQDISNYLSWYQQKPGKAPKLLIYYTNLLAEGVPSRFSGSGSGTDFTFTISSLQPEDIATYYCQQYYNYRTFGPGTKVDIKRTVAAPSVFIFPPSDEQLKSGTASVVCLLNNFYPREAKVQWKVDNALQSGNSQESVTEQDSKDSTYSLSSTLTLSKADYEKHKVYACEVTHQGLSSPVTKSFNRGEC
notes: Humanized anti-human ICOS antibody, human IgG1f with S267E (EU numbering); also called ICOS.33-g1f-S267E
  EC50 of IFN-γ production, CD25-CD4+ T cell and B cell SEB co-culture (20 donors): 0.02 nM
  fold increase of IFN-γ production, CD25-CD4+ T cell and B cell SEB co-culture: ≤ 2.3 fold
